# The list shows a part of the results.
# B1: PhoQ; a variant is named by its letters at X, in order, P23837 (parent)
# chain: MKKLLRLFFPLSLRVRFLLATAAVVLVLSLAYGMVALIGYSVSFDKTTFRLLRGESNLFYTLAKWENNKLHVELPENIDKQSPTMTLIYDENGQLLWAQRDVPWLMKMIQPDWLKSNGFHEIEADVNDTSLLLSGDHSIQQQLQEVREDDDDAEMTHSVAVNVYPATSRMPKLTIVVVDTIPVELKSSYMVWSWFIYVLSANLLLVIPLLWVAAWWSLRPIEALAKEVRELEEHNRELLNPATTRELTSLVRNLNRLLKSERERYDKYRTTLTDLTHSLKTPLXXLQXXLRSLRSEKMSVSDAEPVMLEQISRISQQIGYYLHRASMRGGTLLSRELHPVAPLLDNLTSALNKVYQRKGVNISLDISPEISFVGEQNDFVEVMGNVLDNACKYCLEFVEISARQTDEHLYIVVEDDGPGIPLSKREVIFDRGQRVDTLRPGQGVGLAVAREITEQYEGKIVAGESMLGGARMEVIFGRQHSAPKDE
# Variants of: B1
# Test: enrichment ratio after two sorts for PhoP signalling (ratio (wild type AVST 3.29)); higher = more functional
# Settings: with PhoP (E. coli)
row,Variant,enrichment ratio
1,SRSA,≤ 0.25
2,FWVQ,≤ 0.25
3,ESDQ,≤ 0.25
4,TAMV,14.2
5,RCHG,≤ 0.25
6,DPVN,≤ 0.25
7,ITGS,≤ 0.25
8,FKLC,≤ 0.25
9,FSGY,≤ 0.25
10,QVYT,≤ 0.25
11,LLGS,≤ 0.25
12,GSNF,≤ 0.25
13,FRTQ,≤ 0.25
14,FHIV,≤ 0.25
15,GYCF,≤ 0.25
16,IWIQ,≤ 0.25
17,EKTP,≤ 0.25
18,QIFR,≤ 0.25
19,LRGH,≤ 0.25
20,YEWI,≤ 0.25
21,GRHA,≤ 0.25
22,PWLF,≤ 0.25
23,KNMI,≤ 0.25
24,QGWY,75.8
25,KLFA,≤ 0.25

row,Variant,enrichment ratio
1,AVLK,1.67
2,YFYN,≤ 0.25
3,KDEI,≤ 0.25
4,GCVC,≤ 0.25
5,FYMD,≤ 0.25
6,ANFD,≤ 0.25
7,MYWR,≤ 0.25
8,IMPF,≤ 0.25
9,VQQS,≤ 0.25
10,SKYS,≤ 0.25
11,SYEI,≤ 0.25
12,GNLK,≤ 0.25
13,TPKG,≤ 0.25
14,SQMY,10.7
15,ILGV,≤ 0.25
16,DVSW,≤ 0.25
17,AGCY,3.39
18,KIRL,≤ 0.25
19,QECT,6.99
20,WCMV,≤ 0.25
21,HSCI,≤ 0.25
22,WSWH,≤ 0.25
23,PKKC,≤ 0.25
24,FMGE,≤ 0.25
25,EMAP,≤ 0.25

row,Variant,enrichment ratio
1,GDMG,≤ 0.25
2,DNHN,≤ 0.25
3,QKSG,≤ 0.25
4,HPSL,≤ 0.25
5,KAHF,≤ 0.25
6,SNWQ,≤ 0.25
7,MVII,≤ 0.25
8,WTRS,≤ 0.25
9,SNME,14.4
10,NPLV,≤ 0.25
11,HCSK,≤ 0.25
12,SDVK,≤ 0.25
13,NVFY,≤ 0.25
14,EGDV,≤ 0.25
15,TNSK,≤ 0.25
16,LESA,≤ 0.25
17,RYSV,≤ 0.25
18,TFLQ,≤ 0.25
19,FDHW,≤ 0.25
20,NTGF,≤ 0.25
21,QRTL,≤ 0.25
22,IPFR,≤ 0.25
23,ECAQ,≤ 0.25
24,LKAL,≤ 0.25
25,MWPS,≤ 0.25

row,Variant,enrichment ratio
1,LTHG,0.944
2,HWMN,≤ 0.25
3,DKVH,≤ 0.25
4,NTGD,≤ 0.25
5,YMCL,0.261
6,SWLY,≤ 0.25
7,RKGD,≤ 0.25
8,QGHG,≤ 0.25
9,GASH,≤ 0.25
10,HKIV,≤ 0.25
11,RYQS,≤ 0.25
12,DAAL,≤ 0.25
13,IVPI,≤ 0.25
14,FHPH,0.683
15,AHQR,≤ 0.25
16,RKCH,≤ 0.25
17,AARC,≤ 0.25
18,EESS,≤ 0.25
19,VSHI,0.387
20,HKGC,≤ 0.25
21,IVDG,≤ 0.25
22,WEGH,≤ 0.25
23,GEAN,≤ 0.25

# — a collection of fitness landscapes (doi:10.1126/science.1257360)
